Assay results published in article PMC10668032.
The other results are listed elsewhere or left out. At the low end of the ranking, values are background and their order means little.

target: SIX1-Q177R homeodomain (UniProt Q15475); test: universal protein binding microarray; conditions: Universal all-10-mer PBM (8x60K, AMADID 030236), 300 nM GST-tagged protein, Alexa Fluor 488 anti-GST; buffer, salt, pH and temperature not stated; high values mean tight binding; most listed sequences are background and not binding sites; double strand, one strand shown

Sequence	binding signal [E-score]
CTTCCATA	-0.25
AAACTCTG	-0.198
GCACTCCC	0.127
CCTCCTAA	0.197
GGCTACCA	0.0305
ATTCGTCC	-0.088
CATTCGGA	-0.0373
TTGAGCAA	-0.2
ATTCGCAG	-0.196
CTTCGAAA	0.0326
GGGCATAA	-0.0847
AGGGACCG	-0.238
ATTAATGC	-0.0151
CACTACCC	0.274
ACTGTCCG	-0.0475
GTATCCCA	0.252
CAATCACC	-0.023
GGAGTCCC	0.171
ACAGTGAG	-0.132
CGAATGCG	-0.0892
CTAAGTAC	-0.033
AGGCAATG	-0.193
GCTACCAC	0.181
CACCCAGC	0.127

Sequence	binding signal [E-score]
CCCTATCC	0.0276
ACGCCTTG	0.047
TCTTAAGA	-0.285
CCGGAGAG	0.00094
AAGACATC	-0.256
AGGCCCAG	-0.148
TGAACAAA	-0.163
CCTCCTCG	0.0483
ACATTGGC	-0.046
CCGAAGAC	0.0154
CAGGGATA	0.0508
CGTGTGGC	0.181
CTGTGAAA	-0.0901
GAGTAGAC	-0.00771
AAGCACGC	-0.0661
AGGGGGCA	-0.0454
CGGATTAA	-0.022
CGGGCCAA	-0.15
CTGTATAC	0.122
CCTCCCGA	-0.0757
ATCCTCTA	0.0468
AACATTCG	-0.169
TAATATCA	-0.0163
ACAAGGGC	0.00401

Sequence	binding signal [E-score]
CATACTCA	0.0458
GTCCCGAA	-0.165
CAGAAGCC	-0.161
CTTTCCCA	-0.0356
CTTATTTC	-0.193
CTGACCGC	-0.221
ACCGCCTG	0.146
AAGAGCCG	-0.148
CCAGCCTA	-0.0268
ACACCGCA	0.48
AAGCGACG	0.00388
CTATTTGA	-0.186
CTCCGTTA	0.011
ATTCGGTG	0.325
GCGCAGGA	-0.0255
CCTCCACC	0.0104
CTAGCAGC	-0.143
GCTTCACC	-0.0492
GGGCGCAC	0.034
GATACGGA	0.215
GTTACGTA	-0.0292
TATACCAA	0.0301
GGTAAGAC	0.0227
GGATACAA	0.161

Sequence	binding signal [E-score]
GATCCAAA	-0.0941
TTACTAAA	0.038
ATCCCAAC	0.136
AGGAATTC	-0.242
AGAACTTC	-0.313
CCGTAGTA	-0.0743
ACCAGGTG	0.217
TAGTGATA	0.0624
CGGGGAAG	0.109
AACCGTTG	-0.0123
GATTTCCA	-0.217
AGCTCAAC	0.00413
CTGCTAAG	-0.127
AGCGTGAA	-0.118
TCTCCACA	-0.0547
CCACGGCA	0.0366
CCACTAGG	-0.119
CAACACTG	0.323
ATGATGAA	-0.198
AGATAACC	-0.175
CGGTTGAG	-0.0399
AGGACCCT	0.0335
